For this assay, the target named is T1, extracellular domain of human NOTCH3 (Homo sapiens, UniProt Q9UM47).
T1 construct: IHC assays using HEK-293 cells transiently transfected with NOTCH1, NOTCH2, NOTCH3, or NOTCH4 ECD constructs; expressed in transfected cells; host or cells: HEK-293, transiently transfected
Kind of assay: Screening of anti-NOTCH3 antibodies in IHC assays (FFPE). The format is binding. The source says:
Immunohistochemistry (IHC) is the localization of antigens in tissue sections by the use of specific antibodies through antigen-antibody interactions that are then visualized and detected. However, finding an antibody that works well in an IHC assay, particularly on formalin-fixed paraffin embedded (FFPE) material, can be a difficult endeavor. Common problems include, but are not limited to, strong background staining and weak antigen staining. Many antibodies that work very well in fluorescence-activated cell sorting (FACS) assays, ELISAs, or Western blot analyses have undesirable characteristics in an IHC assay. Therefore an extensive screening project was undertaken to identify an antibody that specifically bound the extracellular domain of human NOTCH3 that would be appropriate for use in IHC assays. In addition to evaluating commercially available anti-NOTCH3 antibodies, murine anti-NOTCH3 monoclonal antibodies were produced and evaluated.
Antibodies were generated against recombinant human NOTCH3 protein amino acids 350-580 (NOTCH3 EGFs 9-14). Mice (n=3) were immunized with NOTCH3 protein using standard techniques. […]
A NOTCH3 immunohistochemistry (IHC) assay was developed and optimized using the murine monoclonal antibody 122M23 identified in Example 3. […] Specific binding was detected using an ADVANCE kit (Dako, Carpinteria Calif.) including diaminobenzidine (DAB) for 5 minutes. […]

T1 sequence (Q9UM47 40-1643 limits assumed): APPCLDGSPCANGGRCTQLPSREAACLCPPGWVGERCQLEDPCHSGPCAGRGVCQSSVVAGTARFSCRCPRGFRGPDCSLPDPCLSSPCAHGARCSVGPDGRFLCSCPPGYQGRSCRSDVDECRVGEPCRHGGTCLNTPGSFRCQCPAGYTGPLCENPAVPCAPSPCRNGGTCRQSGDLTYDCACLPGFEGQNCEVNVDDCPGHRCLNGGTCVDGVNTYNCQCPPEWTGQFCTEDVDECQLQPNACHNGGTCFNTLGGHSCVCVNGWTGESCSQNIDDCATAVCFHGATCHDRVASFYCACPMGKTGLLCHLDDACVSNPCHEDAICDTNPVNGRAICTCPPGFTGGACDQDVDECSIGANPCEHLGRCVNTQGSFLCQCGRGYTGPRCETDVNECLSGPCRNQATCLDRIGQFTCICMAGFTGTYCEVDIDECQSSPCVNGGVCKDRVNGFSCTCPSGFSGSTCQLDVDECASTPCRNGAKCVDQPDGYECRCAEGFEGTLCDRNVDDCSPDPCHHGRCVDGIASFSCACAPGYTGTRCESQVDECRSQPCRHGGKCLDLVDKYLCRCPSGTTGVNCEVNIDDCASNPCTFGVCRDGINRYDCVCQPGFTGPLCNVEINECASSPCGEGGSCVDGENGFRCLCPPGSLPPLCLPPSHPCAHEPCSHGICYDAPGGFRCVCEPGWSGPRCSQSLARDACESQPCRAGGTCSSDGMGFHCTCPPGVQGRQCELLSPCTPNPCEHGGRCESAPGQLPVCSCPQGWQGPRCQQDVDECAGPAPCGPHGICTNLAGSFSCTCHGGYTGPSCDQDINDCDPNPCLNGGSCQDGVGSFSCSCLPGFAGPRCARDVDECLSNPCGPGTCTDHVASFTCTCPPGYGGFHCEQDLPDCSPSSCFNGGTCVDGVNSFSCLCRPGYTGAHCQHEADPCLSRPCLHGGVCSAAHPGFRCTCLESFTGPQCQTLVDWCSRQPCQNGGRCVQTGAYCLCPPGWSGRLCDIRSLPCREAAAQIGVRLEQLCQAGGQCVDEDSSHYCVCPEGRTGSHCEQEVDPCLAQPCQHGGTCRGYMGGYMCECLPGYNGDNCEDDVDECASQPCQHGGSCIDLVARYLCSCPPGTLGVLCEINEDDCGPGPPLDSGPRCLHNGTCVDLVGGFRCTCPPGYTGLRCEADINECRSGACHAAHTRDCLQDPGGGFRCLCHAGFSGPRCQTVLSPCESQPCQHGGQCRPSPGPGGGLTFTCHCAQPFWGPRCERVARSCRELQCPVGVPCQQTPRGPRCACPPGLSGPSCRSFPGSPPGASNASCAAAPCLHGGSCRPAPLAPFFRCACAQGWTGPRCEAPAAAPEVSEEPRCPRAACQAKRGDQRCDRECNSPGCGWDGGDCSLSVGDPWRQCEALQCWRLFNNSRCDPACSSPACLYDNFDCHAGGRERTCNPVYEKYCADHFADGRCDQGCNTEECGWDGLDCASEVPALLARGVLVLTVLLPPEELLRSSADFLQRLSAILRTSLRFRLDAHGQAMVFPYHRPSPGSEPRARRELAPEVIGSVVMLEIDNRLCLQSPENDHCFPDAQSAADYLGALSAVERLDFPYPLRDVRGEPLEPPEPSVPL

B1: 122M23: murine monoclonal anti-NOTCH3 antibody; VH SEQ ID NO:34, VL SEQ ID NO:38; hybridoma ATCC PTA-121154 (antibody, V domains shown)
VH: QVQLQQSGAELARPGASVKMSCKASGYTFTKYTIHWVAQKPGQGLEWIGYINPSNDYTNYNQTFKDKATLTADKSSTTAYMQLISLTSADSTVFYCARGTTPYSLDYWGQGTSVTVSS
VL: DIVLTQSPASLAVSLGQRATISCRASESVDNYGMSFMNWFQQKPGQSPKLLIYAASNQGSGVPARFSGSGSGTNFSLNIHPMEEDDTAVYFCLQSKEVPYTFGGGTKLEIKR
modifications: 122M23 Heavy chain variable region without predicted signal sequence; 122M23 Light chain variable region without predicted signal sequence
notes: murine monoclonal anti-NOTCH3 antibody; hybridoma ATCC PTA-121154
For B1, the “staining in the IHC assay against the desired criteria (NOTCH3 ECD specific, membrane localized, minimal background)” value (FFPE pellets of HEK-293 cells transfected with NOTCH1-4 ECD constructs, positive and negative control tissues) is given as “met all of the desired criteria”. The binding specificity result (IHC reagent antibody) was “specific for the extracellular domain of human NOTCH3”.

For the origin of these results see patent US20170023576A1, “NOTCH3 ANTIBODIES AND USES THEREOF” (ONCOMED PHARMACEUTICALS, INC., priority 2014, published 2017).
